# In the supplement of paper PMC3334620:
# In all, about 33,000 sequences were measured (“E-score (-0.5 to 0.5)”: median about -0.041, highest 2% from about 0.37 on). The list shows a part of the results.
# Molecular target: T1, Ecm22 (UniProt Q05958)
# T1 sequence: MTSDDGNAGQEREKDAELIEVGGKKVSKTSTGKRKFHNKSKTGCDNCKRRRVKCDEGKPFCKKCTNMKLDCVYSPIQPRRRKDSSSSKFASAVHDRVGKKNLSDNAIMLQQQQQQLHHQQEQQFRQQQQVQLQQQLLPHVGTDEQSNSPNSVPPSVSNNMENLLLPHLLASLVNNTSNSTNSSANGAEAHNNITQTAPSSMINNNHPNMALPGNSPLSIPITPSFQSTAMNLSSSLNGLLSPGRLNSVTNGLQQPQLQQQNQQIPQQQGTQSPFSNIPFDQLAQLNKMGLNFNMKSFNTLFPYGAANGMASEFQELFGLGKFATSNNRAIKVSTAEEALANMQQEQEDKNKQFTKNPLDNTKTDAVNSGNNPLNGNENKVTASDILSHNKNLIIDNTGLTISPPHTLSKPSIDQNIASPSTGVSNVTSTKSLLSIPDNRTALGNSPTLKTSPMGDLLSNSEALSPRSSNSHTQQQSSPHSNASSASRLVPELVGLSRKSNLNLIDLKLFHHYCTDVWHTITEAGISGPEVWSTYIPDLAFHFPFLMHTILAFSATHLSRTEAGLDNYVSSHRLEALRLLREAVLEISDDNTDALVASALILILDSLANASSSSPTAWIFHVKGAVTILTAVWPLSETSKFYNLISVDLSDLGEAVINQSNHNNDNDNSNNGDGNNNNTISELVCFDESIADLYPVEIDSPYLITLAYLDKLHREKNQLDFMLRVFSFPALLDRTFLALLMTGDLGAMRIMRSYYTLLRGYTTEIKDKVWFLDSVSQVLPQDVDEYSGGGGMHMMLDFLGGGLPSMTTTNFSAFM
# Test: PBM E-score (8-mer binding enrichment) (E-score (-0.5 to 0.5)); higher = stronger / more preferred TF binding; most listed sequences are background and not binding sites
# Details: protein concentration: 200 nM; construct: GST-full length
# Procedure: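 Universal 'all 10-mer' protein binding microarrays (Agilent AMADID 015681) probed with GST-tagged S. cerevisiae TFs (full-length or DBD) made by in vitro transcription/translation (PURExpress), about 100-200 nM. Bound TF was detected with fluorescent anti-GST. Each ungapped 8-mer (which stands for itself and its reverse complement) is scored by the PBM enrichment score (E-score), a modified Wilcoxon-Mann-Whitney statistic from -0.5 to +0.5, computed with the Universal PBM Analysis Suite. Scale: above 0.35 generally sequence-specific binding.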
row,Sequence,PBM E-score
1,CCGTCTAA,-0.187
2,CTGTAAGA,-0.265
3,TAAGAGGA,0.0334
4,ATGGCCAC,-0.196
5,ATGAAAAT,0.0993
6,AAAATTAC,0.175
7,CAGTTCAG,-0.054
8,AAGGCGAG,0.0136
9,GTTGAAAA,0.0473
10,GCAAAAAC,-0.0665
11,AGGCCATG,0.00734
12,ACCTATAG,-0.424
13,CTCAAGAC,-0.279
14,TCAGTAAA,0.0155
15,CCTCATAC,0.0317
16,CGTCCCAA,-0.162
17,CGCCGCGA,0.0463
18,GTTAACTA,0.106
19,CTCACCCC,-0.103
20,CATCTCCC,-0.124
21,AACCGACT,0.245
22,CGACTGCA,0.121
23,AACAAACC,0.0168
24,AGTGACTA,0.00852
25,ACAGATGC,-0.121

row,Sequence,PBM E-score
1,ACTAATTG,-0.0745
2,CCCATTAG,-0.248
3,ATATGAGA,-0.0254
4,GAGAGTGC,0.0126
5,GAACGTGC,-0.0863
6,ACGTCGAG,0.061
7,CGTGCAAA,-0.137
8,CCAGATCC,-0.198
9,GGCAAACA,-0.2
10,ACGGTCCG,0.176
11,GGGCACAA,-0.14
12,GTCGAAGA,-0.132
13,CGACGTAC,0.35
14,CGTAGACG,0.166
15,CGCCCTAC,-0.15
16,AACAACTC,-0.00449
17,GCGTGTAA,-0.102
18,TCATATAA,-0.193
19,GTACATCA,0.152
20,CCACCAGA,-0.0149
21,TAAATTCA,0.132
22,AGCTGCCT,-0.333
23,ATCGAATA,0.138
24,GGGAGAGA,-0.267
25,CTCTAGAA,-0.201

row,Sequence,PBM E-score
1,CCTTGGGC,-0.116
2,AGCTTTAG,-0.124
3,GAATTGGC,-0.156
4,ATAAACAT,-0.022
5,GTATGCAA,0.0567
6,TAAGCTGA,-0.135
7,CAATCCAC,-0.234
8,ACCGTGTA,0.0789
9,AACCGGTA,0.0342
10,TAACCTAA,-0.0807
11,CTCACCAC,-0.312
12,CTGAAGAA,-0.264
13,ATAACACA,0.135
14,ATTGTTGA,0.0144
15,AAGTAGTG,-0.0663
16,ATGCAAGC,-0.21
17,GGTAGCAA,-0.00923
18,ATAGATCA,0.0938
19,AGTTAGAC,-0.00566
20,AGTCAGAA,-0.151
21,CTGGCAAC,-0.234
22,TATCTAGA,0.0399
23,CATGATGG,-0.259
24,ACAGCCTG,-0.367
25,CGGCACAC,0.0517

row,Sequence,PBM E-score
1,GAAGCAGC,-0.121
2,AGGTAGCC,-0.323
3,CATCGGCC,-0.179
4,CATATTGC,-0.22
5,ATCTAATC,-0.138
6,ACAGAAGG,-0.195
7,CTTGAGTA,-0.0849
8,CTAGTAAG,-0.315
9,ATTTATAA,0.0523
10,ACGCTACT,0.0853
11,CAGGCAGC,-0.317
12,AGATCATC,-0.0184
13,ACGAAGAG,0.341
14,AGAGCTAA,-0.07
15,ATACTCTG,0.106
16,ATAGTTGA,-0.00036
17,AAGGAGAA,0.107
18,CCGGATGC,-0.0883
19,CTTGATTC,-0.129
20,ACCCAACA,-0.164
21,CGCACAAG,0.159
22,AAAAGATT,-0.0824
23,CAGAGCTA,-0.318
24,CAATACAA,-0.0208
25,GGTGCCTA,-0.199

row,Sequence,PBM E-score
1,CACATTTC,0.0286
2,CAGGGAGC,-0.0668
3,GAGGAGAA,-0.00099
4,CATAACTA,-0.0843
5,CTTAGCCA,-0.133
6,CGGGTACG,0.452
7,CTCAGTGC,-0.024
8,CCAGACTA,-0.0501
9,TACATGTA,0.0357
10,CCCCCCAC,-0.446
11,ATGGGACC,-0.182
12,CCAATTAG,-0.0911
13,AGTAACAC,0.011
14,CTAGCGCA,-0.199
15,CTCGGGAA,0.17
16,CCGATCAA,-0.0528
17,GGATGAAC,0.0291
18,CCCTAAAA,-0.236
19,GTCGGCCA,-0.112
20,ACCAAGCG,0.0397
21,AACGGACT,0.089
22,ACGGCACA,0.193
23,GTCCTCCA,-0.0686
24,ACATCCAA,0.0358
25,GTTTATTA,0.232

row,Sequence,PBM E-score
1,GGGCGGAA,-0.0827
2,TAATAGTA,0.128
3,ATCGGAAG,0.0454
4,CCTAGGAG,-0.239
5,AGGGGTAA,-0.125
6,AACCGGGG,-0.137
7,AACACCGG,0.00608
8,CGAGGCGC,0.181
9,AATGACGC,-0.0189
10,GACGCGCA,-0.051
11,TATCATAA,0.066
12,CGAACCGC,0.281
13,CGACGCGC,0.234
14,AGTGAGCA,-0.198
15,ATCGAGAG,0.0766
16,CTTGTGCA,-0.0259
17,AGAGCGTA,0.0978
18,TACGATGA,0.438
19,ACCCTACC,-0.0742
20,CTCTGGGC,-0.288
21,GCCTTAAC,-0.0996
22,CCTGTAGC,-0.391
23,TGGACAAA,-0.132
24,CCACTGAC,-0.0598
25,AATTCGAC,-0.134

row,Sequence,PBM E-score
1,ACAGTTCG,0.112
2,CGCACCGA,0.0962
3,CCGTTTCG,0.262
4,GATATCAC,0.047
5,CGTTGCAC,0.261
6,ACTATTTC,0.105
7,ACCCCCCG,-0.153
8,GACTAGTA,-0.167
9,CACTGTCG,0.109
10,GGCCAGCC,-0.0939
11,CGAAGGAC,0.0433
12,ACAAGCTC,-0.0866
13,TTTGAAAA,-0.0692
14,ATTTATTA,0.244
15,GGACTGAC,-0.187
16,ATCTCCAT,-0.224
17,AATTTGAG,-0.12
18,AATCAGAA,-0.0538
19,CTCAGCCC,-0.227
20,AAGGCGGG,-0.109
21,GTCGCTCA,0.292
22,ACGATGTG,0.298
